# This is one part of the list. At the low end of the ranking, values are background and their order means little.
# Molecular target: GST-SBP-SLBP (stem-loop binding protein) (UniProt Q14493)
# Assay: targeted RNA Bind-n-Seq;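 also: DESeq read counts versus GST-SBP nonspecific binding control pulldown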
# Settings: RBNS binding buffer: 25 mM Tris pH 7.5, 150 mM KCl, 3 mM MgCl2, 0.1% Tween, 0.5 mg/mL BSA, 1 mM DTT; 27 nM protein, 750 pM RNA pool; temperature not stated; high values mean tight binding
row,Sequence,binding signal (log2 fold change)
1,GGUCACGUCUCAAUCAACUCAUCUCCCAGGGAAAACCCUGGUAAACUCAACAGCUCGCAGUCAAG,0.0283
2,GGUCACGUCUCAAUCAACUCAACUUCCAGGGAAACCCCUGGUAAUUUCAACAGCUCGCAGUCAAG,-0.0545
3,GGUCACGUCUCAAUCAACUCUUCCCCCAGGGAAAGCCCUGGUUUACUCAACAGCUCGCAGUCAAG,0.0369
4,GGUCACGUCUCAAUCAACUCUACUCCAGGAGUUUUCUCCUGUAAUUUCAACAGCUCGCAGUCAAG,0.0252
5,GGUCACGUCUCAAUCAACUCUAUAGAGGGGGGGAAAACCCCUUUGCCCUCACUUUCAACAGCUCGCAGUCAAG,0.24
6,GGUCACGUCUCAAUCAACUCUUUCUCCAGGGAAAUCCCUGGCAUUCUCAACAGCUCGCAGUCAAG,0.174
7,GGUCACGUCUCAAUCAACUCUAUCCCCAGGGAAACCCCUGGCAAUCUCAACAGCUCGCAGUCAAG,-0.392
8,GGUCACGUCUCAAUCAACUCAACUCCCAGGGAAAACCCUGGUAAUUUCAACAGCUCGCAGUCAAG,-0.0441
9,GGUCACGUCUCAAUCAACUCUAACGAGGGGGGGAAAACCCCUUUACCCUCCACAUCAACAGCUCGCAGUCAAG,0.0364
10,GGUCACGUCUCAAUCAACUCUUCCCCAGGAGUUUUCUCCUGCAUUCUCAACAGCUCGCAGUCAAG,0.131
11,GGUCACGUCUCAAUCAACUCUUUUUCAGGAGUUUACUCCUGUUAUGUCAACAGCUCGCAGUCAAG,0.0993
12,GGUCACGUCUCAAUCAACUCAUCGUCAGGAGUUUCCUCCUGUUUUUUCAACAGCUCGCAGUCAAG,0.11
13,GGUCACGUCUCAAUCAACUCUUUCUCAGGAGUUUUCUCCUGUUUAUUCAACAGCUCGCAGUCAAG,-0.0246
14,GGUCACGUCUCAAUCAACUCAUACGAGGGGGGGAAAACCCCUUUGCCCUCACUUUCAACAGCUCGCAGUCAAG,-0.195
15,GGUCACGUCUCAAUCAACUCAUCUCCAGGAGUUUUCUCCUGUAAAUUCAACAGCUCGCAGUCAAG,0.0718
16,GGUCACGUCUCAAUCAACUCUAAAGAGGGGGGGAAAACCCCUUUGCCCUCCAUAUCAACAGCUCGCAGUCAAG,-0.0699
17,GGUCACGUCUCAAUCAACUCAUUUUCCAGGGAAAUCCCUGGUUAUUUCAACAGCUCGCAGUCAAG,0.054
18,GGUCACGUCUCAAUCAACUCUCACGAGGGGGGGAAAACCCCUUUGCCCUCAUAAUCAACAGCUCGCAGUCAAG,0.161
19,GGUCACGUCUCAAUCAACUCAAUUCCAGGAGUUUCCUCCUGCAAAUUCAACAGCUCGCAGUCAAG,0.105
20,GGUCACGUCUCAAUCAACUCUUUCUCAGGAGUUUCCUCCUGCAUACUCAACAGCUCGCAGUCAAG,-0.0332
21,GGUCACGUCUCAAUCAACUCUUUUUCAGGAGUUUCCUCCUGCUAUCUCAACAGCUCGCAGUCAAG,0.0115
22,GGUCACGUCUCAAUCAACUCACUAGAGGGGGGGAAAACCCCUUUGCCCUCAAUAUCAACAGCUCGCAGUCAAG,-0.44
23,GGUCACGUCUCAAUCAACUCAAUUUCAGGAGUUUACUCCUGCUAUCUCAACAGCUCGCAGUCAAG,-0.0512
24,GGUCACGUCUCAAUCAACUCUUAAGAGGGGGGGAAAACCCCUUUACCCUCACAAUCAACAGCUCGCAGUCAAG,0.0176
25,GGUCACGUCUCAAUCAACUCAUUUCCAGGAGUUUUCUCCUGCAAUCUCAACAGCUCGCAGUCAAG,0.0708

row,Sequence,binding signal (log2 fold change)
1,GGUCACGUCUCAAUCAACUCCACGGAGGGGGGGAAAACCCCUUUACCCUCAUCCUCAACAGCUCGCAGUCAAG,-0.149
2,GGUCACGUCUCAAUCAACUCAGUUUCAGGAGUUUCCUCCUGCUAUCUCAACAGCUCGCAGUCAAG,0.136
3,GGUCACGUCUCAAUCAACUCAUUAGAGGGGGGGAAAACCCCUUUGCCCUCACUAUCAACAGCUCGCAGUCAAG,-0.537
4,GGUCACGUCUCAAUCAACUCAUUAGAGGGGGGGAAAACCCCUUUACCCUCAACUUCAACAGCUCGCAGUCAAG,-0.078
5,GGUCACGUCUCAAUCAACUCAUCCUCCAGGGAAAACCCUGGCAAUCUCAACAGCUCGCAGUCAAG,-0.0698
6,GGUCACGUCUCAAUCAACUCACACGAGGGGGGGAAAACCCCUUUGCCCUCAACAUCAACAGCUCGCAGUCAAG,0.529
7,GGUCACGUCUCAAUCAACUCUUAAGAGGGGGGGAAAACCCCUUUACCCUCAAAUUCAACAGCUCGCAGUCAAG,-0.0482
8,GGUCACGUCUCAAUCAACUCUAUCGAGGGGGGGAAAACCCCUUUGCCCUCAACAUCAACAGCUCGCAGUCAAG,-0.081
9,GGUCACGUCUCAAUCAACUCCCUAGAGGGGGGGAAAACCCCUUUACCCUCAAUAUCAACAGCUCGCAGUCAAG,-0.00708
10,GGUCACGUCUCAAUCAACUCCCUCGAGGGGGGGAAAACCCCUUUACCCUCACACUCAACAGCUCGCAGUCAAG,-0.451
11,GGUCACGUCUCAAUCAACUCUAGUCCAGGAGUUUCCUCCUGUUUAUUCAACAGCUCGCAGUCAAG,-0.103
12,GGUCACGUCUCAAUCAACUCUUCUCCAGGAGUUUUCUCCUGCUAACUCAACAGCUCGCAGUCAAG,-0.00318
13,GGUCACGUCUCAAUCAACUCAAGGUCAGGAGUUUUCUCCUGUAAUUUCAACAGCUCGCAGUCAAG,-0.00154
14,GGUCACGUCUCAAUCAACUCUACAGAGGGGGGGAAAACCCCUUUACCCUCCAACUCAACAGCUCGCAGUCAAG,0.294
15,GGUCACGUCUCAAUCAACUCUUUCCCAGGAGUUUUCUCCUGUAUUCUCAACAGCUCGCAGUCAAG,0.213
16,GGUCACGUCUCAAUCAACUCAUAAGAGGGGGGGAAAACCCCUUUGCCCUCCAUAUCAACAGCUCGCAGUCAAG,-0.421
17,GGUCACGUCUCAAUCAACUCUUUCCCAGGAGUUUUCUCCUGUAAUCUCAACAGCUCGCAGUCAAG,-0.139
18,GGUCACGUCUCAAUCAACUCAAUCUCCAGGGAAAUCCCUGGCAAAGUCAACAGCUCGCAGUCAAG,-0.125
19,GGUCACGUCUCAAUCAACUCAUUCCCAGGAGUUUUCUCCUGUAUUCUCAACAGCUCGCAGUCAAG,-0.0238
20,GGUCACGUCUCAAUCAACUCAUCCUCCAGGGAAACCCCUGGCAUUCUCAACAGCUCGCAGUCAAG,0.0544
21,GGUCACGUCUCAAUCAACUCUUACGAGGGGGGGAAAACCCCUUUACCCUCCAUAUCAACAGCUCGCAGUCAAG,-0.0754
22,GGUCACGUCUCAAUCAACUCUUUUCCAGGAGUUUUCUCCUGUUUACUCAACAGCUCGCAGUCAAG,-0.108
23,GGUCACGUCUCAAUCAACUCUUUCUCCAGGGAAACCCCUGGUAUUUUCAACAGCUCGCAGUCAAG,-0.279
24,GGUCACGUCUCAAUCAACUCAUUAGAGGGGGGGAAAACCCCUUUGCCCUCAACAUCAACAGCUCGCAGUCAAG,0.0354
25,GGUCACGUCUCAAUCAACUCAUUCUCCAGGGAAACCCCUGGCUAAUUCAACAGCUCGCAGUCAAG,0.0376

row,Sequence,binding signal (log2 fold change)
1,GGUCACGUCUCAAUCAACUCUUCUUCAGGAGUUUUCUCCUGCUUAUUCAACAGCUCGCAGUCAAG,0.0161
2,GGUCACGUCUCAAUCAACUCUUUUUCCAGGGAAAGCCCUGGUUAUCUCAACAGCUCGCAGUCAAG,0.274
3,GGUCACGUCUCAAUCAACUCGCACGAGGGGGGGAAAACCCCUUUACCCUCAAUAUCAACAGCUCGCAGUCAAG,-0.23
4,GGUCACGUCUCAAUCAACUCAAUCUCCAGGGAAAGCCCUGGCUUACUCAACAGCUCGCAGUCAAG,0.196
5,GGUCACGUCUCAAUCAACUCUCCAGAGGGGGGGAAAACCCCUUUACCCUCAACCUCAACAGCUCGCAGUCAAG,0.0404
6,GGUCACGUCUCAAUCAACUCAAUUUCAGGAGUUUUCUCCUGUUUAUUCAACAGCUCGCAGUCAAG,-0.178
7,GGUCACGUCUCAAUCAACUCUCUAGAGGGGGGGAAAACCCCUUUACCCUCAUAUUCAACAGCUCGCAGUCAAG,-0.195
8,GGUCACGUCUCAAUCAACUCAAAAGAGGGGGGGAAAACCCCUUUGCCCUCACCUUCAACAGCUCGCAGUCAAG,-0.0613
9,GGUCACGUCUCAAUCAACUCCCUCGAGGGGGGGAAAACCCCUUUACCCUCAAUGUCAACAGCUCGCAGUCAAG,0.0529
10,GGUCACGUCUCAAUCAACUCUACUCCCAGGGAAAACCCUGGUUUUCUCAACAGCUCGCAGUCAAG,-0.0829
11,GGUCACGUCUCAAUCAACUCAACUCCCAGGGAAAGCCCUGGUAUUCUCAACAGCUCGCAGUCAAG,-0.021
12,GGUCACGUCUCAAUCAACUCUUUCCCCAGGGAAAGCCCUGGUAUACUCAACAGCUCGCAGUCAAG,-0.0682
13,GGUCACGUCUCAAUCAACUCAUCUUCAGGAGUUUUCUCCUGCAAAUUCAACAGCUCGCAGUCAAG,-0.0735
14,GGUCACGUCUCAAUCAACUCAACAGAGGGGGGGAAAACCCCUUUACCCUCACAAUCAACAGCUCGCAGUCAAG,-0.136
15,GGUCACGUCUCAAUCAACUCCUUCGAGGGGGGGAAAACCCCUUUACCCUCUCUAUCAACAGCUCGCAGUCAAG,-0.601
16,GGUCACGUCUCAAUCAACUCAUUCUCCAGGGAAACCCCUGGCUUUCUCAACAGCUCGCAGUCAAG,-0.166
17,GGUCACGUCUCAAUCAACUCUUUUCCAGGAGUUUUCUCCUGCUUAUUCAACAGCUCGCAGUCAAG,-0.0487
18,GGUCACGUCUCAAUCAACUCAUUCCCCAGGGAAAGCCCUGGUAUAUUCAACAGCUCGCAGUCAAG,0.0877
19,GGUCACGUCUCAAUCAACUCCAACGAGGGGGGGAAAACCCCUUUGCCCUCAAUAUCAACAGCUCGCAGUCAAG,0.225
20,GGUCACGUCUCAAUCAACUCAACAGAGGGGGGGAAAACCCCUUUACCCUCCACAUCAACAGCUCGCAGUCAAG,-0.0237
21,GGUCACGUCUCAAUCAACUCAUUCCCCAGGGAAAACCCUGGCAUUCUCAACAGCUCGCAGUCAAG,-0.255
22,GGUCACGUCUCAAUCAACUCGUUUUCAGGAGUUUUCUCCUGUUUAUUCAACAGCUCGCAGUCAAG,0.00593
23,GGUCACGUCUCAAUCAACUCUAUCCCCAGGGAAAUCCCUGGCUUUUUCAACAGCUCGCAGUCAAG,-0.246
